Here are results for one molecule from US20020068706A1 (GPC BIOTECH, published 2002).

One test deals with cdc2/cyclin B complex (UniProt P06493). As to the kind of experiment: cell-based or functional assay.
Test [1] has as its target T1, CDK4/cyclin D1 complex (UniProt P11802 1-303; P24385). The test can be described thus: cell-based or functional assay.
A further test addresses CDK2/cyclin E complex (UniProt P24941). As to the kind of experiment: cell-based or functional assay.
A further test concerns the target CDK2/cyclin A complex (UniProt P24941). As to the kind of experiment: cell-based or functional assay.
Test [2] deals with T1, CDK4/cyclin D1 complex. As to the kind of experiment: inhibition constant from in vitro kinase assay (Sf9 extract, Gst-Rb substrate).
T1 sequence (P11802 whole entry, chain 1 of 2): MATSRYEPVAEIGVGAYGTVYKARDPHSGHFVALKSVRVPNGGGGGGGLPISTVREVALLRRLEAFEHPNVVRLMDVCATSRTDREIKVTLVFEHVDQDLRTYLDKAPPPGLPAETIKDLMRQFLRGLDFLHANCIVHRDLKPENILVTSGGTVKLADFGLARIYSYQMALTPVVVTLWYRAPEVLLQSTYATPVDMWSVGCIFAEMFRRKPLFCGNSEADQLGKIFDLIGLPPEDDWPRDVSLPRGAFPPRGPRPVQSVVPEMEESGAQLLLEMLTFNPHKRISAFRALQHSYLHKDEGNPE
T1 sequence (P24385 whole entry, chain 2 of 2, further chain): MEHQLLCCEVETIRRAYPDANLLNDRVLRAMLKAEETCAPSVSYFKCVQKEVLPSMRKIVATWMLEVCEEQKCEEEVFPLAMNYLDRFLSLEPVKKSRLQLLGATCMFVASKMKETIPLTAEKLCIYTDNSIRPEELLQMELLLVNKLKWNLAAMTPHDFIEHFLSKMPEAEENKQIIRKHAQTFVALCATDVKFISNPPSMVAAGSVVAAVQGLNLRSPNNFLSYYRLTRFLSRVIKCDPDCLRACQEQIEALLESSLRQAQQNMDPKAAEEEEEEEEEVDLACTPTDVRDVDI

Chain of cdc2/cyclin B complex (P06493 whole entry, one chain of several): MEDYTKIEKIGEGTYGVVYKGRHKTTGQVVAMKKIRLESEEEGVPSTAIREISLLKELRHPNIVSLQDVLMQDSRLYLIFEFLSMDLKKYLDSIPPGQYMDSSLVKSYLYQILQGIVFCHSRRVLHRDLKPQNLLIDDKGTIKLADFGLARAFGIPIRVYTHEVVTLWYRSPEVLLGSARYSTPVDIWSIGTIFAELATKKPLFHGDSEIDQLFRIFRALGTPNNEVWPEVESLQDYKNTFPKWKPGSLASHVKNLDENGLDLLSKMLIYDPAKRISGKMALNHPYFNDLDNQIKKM

B1: p27-p16 fusion protein (other)
chain: [about 200 residues omitted]GGGGSGGGGSGGGGSEFCGRACARRLRRGESMQRAAGSSMEPSADWLATAAARGRVEEVRALLEAVALPNAPNSYGRRPIQVMMMGSARVAELLLLHGAEPNCADPATLTRPVHDAAREGFLDTLVVLHRAGARLDVRDAWGRLPVDLAEELGHRDVARYLRAAAGGTRGSNHARIDAAEGPSDIPD
notes: About 25% of the preparation was the fusion protein; also called p27-p16 chimeric protein
One may read the Ki as the dissociation constant of the complex between target and ligand, obtained from inhibition or displacement. A higher Ki goes with a looser hold on the target. On to B1, for which the “IC50 of in vitro kinase assay (32P incorporation into Gst-Rb)” value in the test with cdc2/cyclin B complex turned out to be 15 nM; with CDK4/cyclin D1 complex [1], 25 nM; in the test with CDK2/cyclin E complex it was 30 nM; with CDK2/cyclin A complex it was 25 nM. The molecule further had a Ki with CDK4/cyclin D1 complex [2] of 23 nM.
